Experimental data: the supplement of paper PMC4967469

compound: NC1(c2ccc(-c3nc4ccn5c(=O)[nH]nc5c4cc3-c3ccccc3)cc2)CCC1 [MK-2206]; assay: Viability of human cancer cell lines after 72 h of drug (GDSC screen)
Method: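 Human cancer cell lines in 384-well plates, medium with 10% serum, drug for 72 h over a 256-fold dose range (nine 2-fold or five 4-fold steps up to the top dose). Adherent lines were fixed and stained with the nucleic acid dye Syto60, suspension lines read with resazurin; signal relative to control wells, capped at 0 and 100%. One two-parameter sigmoid per drug and line, fitted in a mixed model over all curves with the slope shared within a line.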

| Cell Line | AUC | IC50 |
| --- | --- | --- |
| CW-2 (large intestine, adherent, top dose 4 µM) | 0.953 | > 4 µM |
| Ca9-22 (head and neck, adherent, top dose 4 µM) | 0.981 | > 4 µM |
| Ca-Ski (cervix, adherent, top dose 4 µM) | 0.704 | 1.01 µM |
| CaR-1 (large intestine, adherent, top dose 4 µM) | 0.938 | > 4 µM |
| Calu-3 (lung adenocarcinoma, adherent, top dose 4 µM) | 0.856 | > 4 µM |
| Calu-6 (lung adenocarcinoma, adherent, top dose 4 µM) | 0.958 | > 4 µM |
| Caov-4 (ovary, adherent, top dose 4 µM) | 0.829 | > 4 µM |
| Capan-2 (pancreas, adherent, top dose 4 µM) | 0.976 | > 4 µM |
| ChaGo-K-1 (non-small cell lung carcinoma, adherent, top dose 4 µM) | 0.934 | > 4 µM |
| D-247MG (glioma, adherent, top dose 4 µM) | 0.9 | > 4 µM |
| D-263MG (glioma, adherent, top dose 4 µM) | 0.846 | 3.9 µM |
| D-283MED (medulloblastoma, adherent, top dose 4 µM) | 0.89 | 3.92 µM |
| D-392MG (glioma, adherent, top dose 4 µM) | 0.969 | > 4 µM |
| D-423MG (glioma, adherent, top dose 4 µM) | 0.811 | 2.72 µM |
| D-502MG (glioma, adherent, top dose 4 µM) | 0.842 | > 4 µM |
| D-542MG (glioma, adherent, top dose 4 µM) | 0.845 | 3.92 µM |
| D-566MG (glioma, adherent, top dose 4 µM) | 0.922 | > 4 µM |
| DAN-G (pancreas, adherent, top dose 4 µM) | 0.953 | > 4 µM |
| DB (B-cell lymphoma, suspension, top dose 4 µM) | 0.94 | > 4 µM |
| DBTRG-05MG (glioma, adherent, top dose 4 µM) | 0.939 | > 4 µM |
| DEL (lymphoid neoplasm, suspension, top dose 4 µM) | 0.994 | > 4 µM |

| Cell Line | AUC | IC50 |
| --- | --- | --- |
| DG-75 (Burkitt lymphoma, suspension, top dose 4 µM) | 0.831 | 2.57 µM |
| DIFI (large intestine, adherent, top dose 4 µM) | 0.676 | 0.794 µM |
| DJM-1 (skin, adherent, top dose 4 µM) | 0.947 | > 4 µM |
| DK-MG (glioma, adherent, top dose 4 µM) | 0.926 | > 4 µM |
| DMS-79 (small cell lung carcinoma, suspension, top dose 4 µM) | 0.961 | > 4 µM |
| DMS-114 (small cell lung carcinoma, adherent, top dose 4 µM) | 0.813 | 2.57 µM |
| DMS-273 (small cell lung carcinoma, adherent, top dose 4 µM) | 0.745 | 1.33 µM |
| DND-41 (T-cell leukaemia, suspension, top dose 4 µM) | 0.922 | > 4 µM |
| DOHH-2 (B-cell lymphoma, suspension, top dose 4 µM) | 0.768 | 1.47 µM |
| DOK (head and neck, adherent, top dose 4 µM) | 0.624 | 0.652 µM |
| DOV13 (ovary, adherent, top dose 4 µM) | 0.856 | > 4 µM |
| DSH1 (bladder, adherent, top dose 4 µM) | 0.888 | > 4 µM |
| DU-145 (prostate, adherent, top dose 2 µM) | 0.768 | 0.832 µM |
| DU-4475 (breast, suspension, top dose 4 µM) | 0.964 | > 4 µM |
| Daudi (Burkitt lymphoma, suspension, top dose 4 µM) | 0.848 | 2.42 µM |
| Detroit562 (head and neck, adherent, top dose 4 µM) | 0.94 | > 4 µM |
| DoTc2-4510 (cervix, adherent, top dose 4 µM) | 0.949 | > 4 µM |
| EB2 (Burkitt lymphoma, suspension, top dose 4 µM) | 0.99 | > 4 µM |
| EB-3 (Burkitt lymphoma, suspension, top dose 4 µM) | 0.984 | > 4 µM |
| EBC-1 (lung squamous cell carcinoma, adherent, top dose 4 µM) | 0.835 | 3.11 µM |
| EC-GI-10 (oesophagus, adherent, top dose 4 µM) | 0.715 | 1.01 µM |

| Cell Line | AUC | IC50 |
| --- | --- | --- |
| ECC10 (stomach, suspension, top dose 4 µM) | 0.837 | 2.85 µM |
| EFM-192A (breast, adherent, top dose 4 µM) | 0.653 | 0.7 µM |
| EFO-21 (ovary, adherent, top dose 4 µM) | 0.944 | > 4 µM |
| EFO-27 (ovary, adherent, top dose 4 µM) | 0.904 | > 4 µM |
| EGI-1 (biliary tract, adherent, top dose 2 µM) | 0.854 | > 2 µM |
| EHEB (lymphoid neoplasm, suspension, top dose 4 µM) | 0.706 | 1.26 µM |
| EJM (lymphoid neoplasm, semi-adherent, top dose 4 µM) | 0.963 | > 4 µM |
| EKVX (lung adenocarcinoma, adherent, top dose 4 µM) | 0.789 | > 4 µM |
| EM-2 (chronic myeloid leukaemia, suspension, top dose 4 µM) | 0.644 | 0.662 µM |
| EMC-BAC-1 (lung adenocarcinoma, adherent, top dose 4 µM) | 0.886 | > 4 µM |
| EMC-BAC-2 (lung adenocarcinoma, adherent, top dose 4 µM) | 0.723 | 1.22 µM |
| EN (endometrium, adherent, top dose 4 µM) | 0.82 | 3.14 µM |
| ES1 (Ewing sarcoma, adherent, top dose 4 µM) | 0.691 | 0.85 µM |
| ES3 (Ewing sarcoma, adherent, top dose 2 µM) | 0.821 | 1.24 µM |
| ES4 (Ewing sarcoma, adherent, top dose 4 µM) | 0.932 | > 4 µM |
| ES5 (Ewing sarcoma, adherent, top dose 4 µM) | 0.647 | 0.681 µM |
| ES6 (Ewing sarcoma, adherent, top dose 4 µM) | 0.86 | > 4 µM |
| ES7 (Ewing sarcoma, adherent, top dose 4 µM) | 0.929 | > 4 µM |
| ES8 (Ewing sarcoma, adherent, top dose 4 µM) | 0.744 | 1.17 µM |
| ES-2 (ovary, adherent, top dose 4 µM) | 0.8 | 1.67 µM |

IC50 is the fitted dose that halves viability relative to control wells, and lower means more sensitive; a fit beyond the top or the lowest dose is shown as a bound at that dose. AUC sums up the same curve from the lowest dose to the 256-fold higher top dose; it is 1 without any effect and falls as sensitivity rises.
